The labels stand for the following.
T1: UNK ZnF1-6 (called full-length) (human, UniProt Q9C0B0 30-357)
T1 sequence: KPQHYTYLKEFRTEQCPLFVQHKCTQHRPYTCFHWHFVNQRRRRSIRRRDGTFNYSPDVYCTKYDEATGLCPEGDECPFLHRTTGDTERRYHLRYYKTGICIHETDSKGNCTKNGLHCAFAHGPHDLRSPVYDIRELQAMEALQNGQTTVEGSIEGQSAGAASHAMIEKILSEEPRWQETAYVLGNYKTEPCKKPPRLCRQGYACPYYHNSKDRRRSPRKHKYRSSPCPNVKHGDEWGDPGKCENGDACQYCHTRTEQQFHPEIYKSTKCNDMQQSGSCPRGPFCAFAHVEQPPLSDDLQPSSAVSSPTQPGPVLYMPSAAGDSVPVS

B1: chr6:149889094:149889339:-|three_prime_utr|ENSG00000164520|control|control|control (ssRNA)
RNA: GGGAGUUCUACAGUCCGACGAUCGGCAGCUCCCUUUAAAGGUCAAAAGCCUUCCCUGUGUGGGUGUCAGUGUGUGUGUGCGAUAGAAAAUUUGAUUGACUUCUCCGUGGGCUUCCUGUCUGGAGAGUCAGUGAUGGCUAUAAGCAACAGAGGAUUGAGCAUCA
B2: ENSG00000070961:be:win_6051|3pUTR|ENSG00000070961|bound_else_gene|NA|bound_elsewhere_windowed (ssRNA)
RNA: GGGAGUUCUACAGUCCGACGAUCCAGAAAUUUCCAGAGCAUUAUGUAGGUAGAAAAAAAUGCAAGCAAGCUGUUAAAGAUCUUGGAUCCCAUUAUAUAGUAUGUAUAGCUGAAAUCUGUAAUUCAAUCACUUUUUCUCUUUUACAACAGAGGAUUGAGCAUCA
B3: chr2:55866929:55867030:-|3pUTR|ENSG00000115380|msi1|FALSE|unique (ssRNA)
RNA: GGGAGUUCUACAGUCCGACGAUCAUUUAAGUCAGCCAAAGAAUAUUGUUACCUUAAAGCACUAUUUUAUUUAUAGAUAUAUCUAGUGCAUCUACAUCUCUAUACUGUACACUCACCCAUAAUUCAAACAAUUACACCAUGGUACAACAGAGGAUUGAGCAUCA
B4: chr6:119178661:119178762:-|3pUTR|ENSG00000111885|msi1|FALSE|unique (ssRNA)
RNA: GGGAGUUCUACAGUCCGACGAUCGAAAGAAGCUUUGCCAAUUUUACUUAUUCGUGAUCAAUCAAGGAAAAUCUAAUAAAUUUUAGGCCAAAUAAGAAUAUAGCAUAUUUAGUAUGGUUAUAGUCAACACAGAGAUCACAACUUCAACAGAGGAUUGAGCAUCA
B5: chr20:25297698:25297799:+|3pUTR|ENSG00000100994|msi1|FALSE|unique (ssRNA)
RNA: GGGAGUUCUACAGUCCGACGAUCCCCAAGAGAGAGGGCAGGGAACAGGCUACUGUCCUUCCCUGUGGAAUUGCCGAGAAAUCUAGCACCUUGCAUGCUGGAUCUGGGCUGCGGGGAGGCUCUUUUUCUCCCUGGCCUCCAGUGCAACAGAGGAUUGAGCAUCA
B6: chr18:3457781:3457936:+|CDS|ENSG00000177426|unk|FALSE|unique (ssRNA)
RNA: GGGAGUUCUACAGUCCGACGAUCCAACACUCCUCCCCCUACUCCACCGGACCUCAACCAGGACUUCAGUGGAUUUCAGCUUCUAGUGGAUGUUGCACUCAAACGGGCUGCAGAGAUGGAGCUUCAGGCAAAACUUACAGCUUACAACAGAGGAUUGAGCAUCA
B7: chr3:154276180:154276282:-|CDS|ENSG00000174953|unk|total|mutant (ssRNA)
RNA: GGGAGUUCUACAGUCCGACGAUCUCAUCCUGCCGACUGGAAUGACACUAAAUCCAGAGACUGUGCAGUACUGUCAGCUAUUACCGACUUGAUCAAAACACAGGAAAAGGCAACUCCCAGGAACUUUCCGCCACGAUUCCAGGACAACAGAGGAUUGAGCAUCA
B8: chr11:134151495:134151596:+|3pUTR|ENSG00000166086|unk|FALSE|unique (ssRNA)
RNA: GGGAGUUCUACAGUCCGACGAUCUAGUGCCAUGGGAACCAGGUCUGAAAAAGUAGAGAGAAGUGAAAGUAGAGUCUGGGAAGUAGCUGCCUAUAACUGAGACUAGACGGAAAAGGAAUACUCGUGUAUUUUAAGAUAUGAAUGCAACAGAGGAUUGAGCAUCA
B9: chr5:78475949:78476050:+|3pUTR|ENSG00000085365|msi1|FALSE|unique (ssRNA)
RNA: GGGAGUUCUACAGUCCGACGAUCACCCACUGAAAAUUAAUAAUGGUACUUAUGAUUAAAAACGCAUUUAAUACUAACUGCAGUAGUUCUUUCAAGAAUCUUUAGAGAUAAGGAUUGCACAUUGGAAAAGUAAACCAUGUUUCACAACAGAGGAUUGAGCAUCA
B10: chr1:6525536:6525637:-|3pUTR|ENSG00000162408|msi1|total|mutant (ssRNA)
RNA: GGGAGUUCUACAGUCCGACGAUCACAGUUUGUGUGCCAUUAAAACAGAGAUUCCUCAGAAAGUUCUUCAGGGACCUGGUUAUCCGAAUCAGGAUAAAAAUAAGGAAACUGGGGCCAUUACAAUGUACCGAGAAGGAAGGAAGACAACAGAGGAUUGAGCAUCA
B11: chr6:143501988:143502101:-|CDS|ENSG00000001036|unk|total|mutant (ssRNA)
RNA: GGGAGUUCUACAGUCCGACGAUCUUCAUGUGGAGGAAAUCUUUUGAUGAAUAUUGGGCCCACACCCGAUGGCACCAUUUCUGCCGUUUUUGAGGAGCGACUGAGGCAAAUGGGGUCCUGGCUAAAAGUCAAUGGAGAAGCUAUCAACAGAGGAUUGAGCAUCA
B12: chrX:13662881:13662996:+|CDS|ENSG00000176896|unk|FALSE|unique (ssRNA)
RNA: GGGAGUUCUACAGUCCGACGAUCUCGAAUUCUCUGUCUUCCCAAGACGUUGCAAAACUCAGUGAAAUGAUUGUGCCUGAAAAUAGAGCCAUUCAAUUGAAACCUAAGGAAGAGCAUUUUGGGGAUGGUGACCCUGAAUCCACUCAACAGAGGAUUGAGCAUCA
B13: chr12:39369705:39369875:-|CDS|ENSG00000139116|unk|FALSE|unique (ssRNA)
RNA: GGGAGUUCUACAGUCCGACGAUCGGGUAUUAUUUCUCGAGCUGUUAAACACCUUUUUAAGAGUAUUGAAGAAAAAAAACACAUAGCAAUUAAAAAUGGGCUUCCUGCUCCAGAUUUUAAAGUGAAUGCCCAAUUCUUAGAGGUCAACAGAGGAUUGAGCAUCA
B14: chr8:103442975:103443076:+|3pUTR|ENSG00000164934|msi1|FALSE|bound_elsewhere (ssRNA)
RNA: GGGAGUUCUACAGUCCGACGAUCGGACUAGAUUAAUUGCAAACAUUUUAGUUAUAUGUGUAGAGCUUUAUUGUUACUCCUUUUAGCUACCCUGAAAAAUGAUCCUUAAAGGUGGCCUAGUUGGUAAGACUGUUUUAUCCUUAACAACAGAGGAUUGAGCAUCA
B15: chr13:69700593:69701701:-|three_prime_utr|ENSG00000150361|control|control|control (ssRNA)
RNA: GGGAGUUCUACAGUCCGACGAUCUUGAAUGGCAAGAAUGAGAACUUCCAGAGAUGAAAACUCUUCAAGAACAAGGAUCUCUGUAGCGUUACCUACUGAUGUUGAAAGAGUUAGUAGAUCAAACAGAAUAGUAGGAAACAAGAACAACAGAGGAUUGAGCAUCA
B16: chr10:15076986:15077088:-|3pUTR|ENSG00000176244|unk|total|mutant (ssRNA)
RNA: GGGAGUUCUACAGUCCGACGAUCUUUUCCUUUAAGAAGAUACCCAGCCGUGGGAUUGCUGGGCCGAAUGGCCGUUCUAUUUUCCGUUCCAUGAGAAAUUUCCGUGCUGUUUUUCACCGAGGUUGUACUAAUUUACAUUCCCACCAACAGAGGAUUGAGCAUCA
B17: chr1:203741488:203741589:+|3pUTR|ENSG00000058668|msi1|total|mutant (ssRNA)
RNA: GGGAGUUCUACAGUCCGACGAUCGCCAGUUCAUGUCCCUGACUCUCACCUCCCAUCCGAUAAAUGAAGCCCACCCCCCUUUCCCGAGUGAUGAGAGUCAAGAAGAGGGGAUGUAUGAACGGCCAAAUUCCCAUGUGAGAGGAACAACAGAGGAUUGAGCAUCA
B18: chr22:20819776:20819877:-|CDS|ENSG00000241973|unk|total|mutant (ssRNA)
RNA: GGGAGUUCUACAGUCCGACGAUCUGUAACGUUUUCACUUGAUCUUCCCGAAUACCUUUGCAAGUAUGCUAUCCCAUGCCUGACCGGAAUCUCGCGAGCAUUUGGGCGUUACAGCAACAUGGAAGAGUCUCUCCUCUCAAAGCUCAACAGAGGAUUGAGCAUCA
B19: ENSG00000163399:stop:overlap|stop_codon|ENSG00000163399|stop_codon|NA|stop_codon (ssRNA)
RNA: GGGAGUUCUACAGUCCGACGAUCUCAGAAAACUCAUCAUCAGGCGACGCCCUGGCGGCUGGGUGGAGAAGGAAACCUACUAUUAGCCCCCCGUCCUGCACGCCGUGGAGCAUCAGGCCACACACUCUGCAUCCGACACCCACCCAACAGAGGAUUGAGCAUCA
B20: chrX:47571900:47572933:-|three_prime_utr|ENSG00000008056|control|control|control (ssRNA)
RNA: GGGAGUUCUACAGUCCGACGAUCAAACCUGACUCCUCCUGGCCCUAAAUCCGGUUCUCACAUGUGGAAUCCCCAAGUCCUUUUAGAACCCCACUCGUGGUCACUUCAGGAUCUACUUCUGUUUUAGAACCUCCACAUUCCUGACAACAGAGGAUUGAGCAUCA
B21: chr5:178210945:178211047:+|3pUTR|ENSG00000197451|unk|FALSE|unique (ssRNA)
RNA: GGGAGUUCUACAGUCCGACGAUCCUGCUGCCGCUCUGCAGCCUGGACCUGUGGACCCUGGUUGUAAAGAGUAAAUUGUAUCUUAGGAAACCAGUGUCACCUUUUUUUCACCUUUUAAUUUUAUAUUAUUUGCGUCAUACAUUUCAACAGAGGAUUGAGCAUCA
B22: chr5:113567122:113567223:+|CDS|ENSG00000047188|unk|total|mutant (ssRNA)
RNA: GGGAGUUCUACAGUCCGACGAUCAAACUCUGAGAAUUGGGCUGUCGUUAAAGCUGCAUUGGUGGCAGGCAUGUAUCCUAAUUCCGUCCACGUGGACAGAGAGAAUCCCGUGUUGACAGGGCCAAAGGAGAAAAAAGUACGAUUCAACAGAGGAUUGAGCAUCA

This is one part of the list.

Here are results for 22 molecules from paper PMC12136788.

In this experiment the target is T1, UNK ZnF1-6 (called full-length). The experiment in a line: nsRBNS (natural sequence RNA bind-n-seq); RBNS binding buffer (assumed for nsRBNS): 25 mM Tris pH 7.5, 150 mM KCl, 3 mM MgCl2, 0.01% Triton X-100, 500 ug/ml BSA, 20 U/ml SUPERase-In, 4 C; UNK is unkempt and MSI1 is Musashi-1; names of the RNAs are library labels; protein concentration not given here; high values mean tight binding.
The molecule B1 displayed a binding signal of 0.908 enrichment R. Under B2 stands 3.07 enrichment R; under B3, 0.713 enrichment R; under B4, 2.15 enrichment R. Take B5: the binding signal turned out to be 0.621 enrichment R. As for B6, the binding signal is 0.739 enrichment R.

Molecule B7 gave a binding signal of 0.522 enrichment R. For B8, the binding signal was 0.667 enrichment R. Under B9 stands 0.536 enrichment R; under B10, 0.553 enrichment R; under B11, 0.836 enrichment R. Under B12 stands 0.385 enrichment R. In the case of B13 it was 2.36 enrichment R; in that of B14, 6.96 enrichment R; in that of B15, 0.541 enrichment R. B16: the binding signal is 0.434 enrichment R.

In turn, B17 registered a binding signal of 0.866 enrichment R.

As to B18, the binding signal was found to be 0.413 enrichment R. B19 displayed a binding signal of 0.811 enrichment R. Under B20 stands 0.975 enrichment R. Under B21 stands 0.916 enrichment R.

B22: the binding signal amounted to 0.606 enrichment R.
